Data taken from publication PMC5612953, “Stable MOB1 interaction with Hippo/MST is not essential for development and tissue growth control” (Nature Communications, 2017).
Changes are numbered by the printed parent chain. In names and notes the source's numbering stands. Results are given in words; binding and its absence hold for the method and conditions named. Binding seen in cells or lysates may run through a third protein. Some binding calls cover weakened binding; strength is not graded here. Where a sequence is shown, tags or fusion partners need not be part of it. Values belong to the binder of their own block, whether it stands above or below them.

Sequences of proteins named here, by UniProt entry; tags and fusion partners are left off.
UniProt Q15208: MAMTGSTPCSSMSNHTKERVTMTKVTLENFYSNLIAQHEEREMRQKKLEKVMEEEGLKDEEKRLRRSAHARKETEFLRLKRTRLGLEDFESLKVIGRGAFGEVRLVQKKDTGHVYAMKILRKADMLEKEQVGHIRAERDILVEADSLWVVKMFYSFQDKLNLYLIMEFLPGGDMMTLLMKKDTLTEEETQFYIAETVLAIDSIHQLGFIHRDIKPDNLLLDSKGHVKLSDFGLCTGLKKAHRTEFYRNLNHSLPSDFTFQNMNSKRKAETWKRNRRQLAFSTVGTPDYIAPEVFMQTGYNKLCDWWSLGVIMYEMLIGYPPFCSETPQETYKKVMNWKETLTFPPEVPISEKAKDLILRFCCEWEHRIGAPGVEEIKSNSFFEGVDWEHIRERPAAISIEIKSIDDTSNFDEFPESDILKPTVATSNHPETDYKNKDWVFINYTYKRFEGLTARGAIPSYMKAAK
UniProt Q9Y2H1: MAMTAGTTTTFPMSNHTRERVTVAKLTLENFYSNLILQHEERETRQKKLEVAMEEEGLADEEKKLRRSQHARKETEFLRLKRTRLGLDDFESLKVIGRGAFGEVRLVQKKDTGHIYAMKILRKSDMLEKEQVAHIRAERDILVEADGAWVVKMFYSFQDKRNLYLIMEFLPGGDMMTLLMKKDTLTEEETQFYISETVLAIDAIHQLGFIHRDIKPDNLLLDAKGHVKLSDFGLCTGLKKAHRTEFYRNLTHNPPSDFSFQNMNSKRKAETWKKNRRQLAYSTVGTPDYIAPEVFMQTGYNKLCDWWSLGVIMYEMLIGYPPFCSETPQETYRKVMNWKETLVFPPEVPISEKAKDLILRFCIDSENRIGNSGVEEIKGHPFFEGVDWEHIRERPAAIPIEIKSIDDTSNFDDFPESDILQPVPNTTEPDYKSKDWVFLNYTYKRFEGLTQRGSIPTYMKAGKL

Columns and labels:
Assay in all cases: co-IP; HEK293 cells co-expressing myc-MOB1A variants and HA-tagged kinases; IP with anti-HA (12CA5), blot anti-myc; low-stringency buffer (30 mM HEPES pH 7.4, 20 mM KCl, 1% TX-100)
[1] = biological target: T1, HA-tagged wild-type human LATS1 (human) (UniProt O95835)
T1 sequence: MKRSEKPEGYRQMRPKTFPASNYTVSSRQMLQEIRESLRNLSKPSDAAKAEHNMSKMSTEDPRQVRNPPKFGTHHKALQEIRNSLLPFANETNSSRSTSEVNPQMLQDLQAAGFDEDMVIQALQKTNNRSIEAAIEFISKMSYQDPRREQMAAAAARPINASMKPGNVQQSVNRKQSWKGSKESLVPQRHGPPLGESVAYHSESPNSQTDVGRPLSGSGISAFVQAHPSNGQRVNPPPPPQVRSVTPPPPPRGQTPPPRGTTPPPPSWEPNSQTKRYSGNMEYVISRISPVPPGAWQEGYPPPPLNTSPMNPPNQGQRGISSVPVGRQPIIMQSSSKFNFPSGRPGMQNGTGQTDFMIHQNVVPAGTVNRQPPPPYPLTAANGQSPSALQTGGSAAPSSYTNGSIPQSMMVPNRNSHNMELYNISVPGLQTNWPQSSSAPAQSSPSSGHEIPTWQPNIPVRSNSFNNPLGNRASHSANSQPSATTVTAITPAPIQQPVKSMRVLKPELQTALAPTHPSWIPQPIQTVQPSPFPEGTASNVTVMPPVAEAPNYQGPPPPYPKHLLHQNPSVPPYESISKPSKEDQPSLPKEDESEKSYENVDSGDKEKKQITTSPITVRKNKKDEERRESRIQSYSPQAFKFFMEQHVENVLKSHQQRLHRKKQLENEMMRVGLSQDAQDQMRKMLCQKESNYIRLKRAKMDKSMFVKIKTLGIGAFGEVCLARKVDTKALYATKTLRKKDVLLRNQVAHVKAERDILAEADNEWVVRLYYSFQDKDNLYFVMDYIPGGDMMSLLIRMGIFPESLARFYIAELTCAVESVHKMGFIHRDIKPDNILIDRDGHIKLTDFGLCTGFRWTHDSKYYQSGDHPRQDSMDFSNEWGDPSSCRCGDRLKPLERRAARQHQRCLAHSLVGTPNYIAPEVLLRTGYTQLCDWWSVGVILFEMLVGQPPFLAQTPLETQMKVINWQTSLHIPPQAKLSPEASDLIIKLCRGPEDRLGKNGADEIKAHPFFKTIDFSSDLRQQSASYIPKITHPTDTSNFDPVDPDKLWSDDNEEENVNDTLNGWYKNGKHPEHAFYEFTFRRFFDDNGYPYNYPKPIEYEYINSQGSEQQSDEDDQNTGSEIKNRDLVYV

[2] = biological target: HA-tagged wild-type human NDR1 (human) (UniProt Q15208)
[3] = biological target: HA-tagged wild-type human NDR2 (human) (UniProt Q9Y2H1)
[4] = biological target: T2, full-length HA-MST1 wild-type (human) (UniProt Q13043)
T2 sequence: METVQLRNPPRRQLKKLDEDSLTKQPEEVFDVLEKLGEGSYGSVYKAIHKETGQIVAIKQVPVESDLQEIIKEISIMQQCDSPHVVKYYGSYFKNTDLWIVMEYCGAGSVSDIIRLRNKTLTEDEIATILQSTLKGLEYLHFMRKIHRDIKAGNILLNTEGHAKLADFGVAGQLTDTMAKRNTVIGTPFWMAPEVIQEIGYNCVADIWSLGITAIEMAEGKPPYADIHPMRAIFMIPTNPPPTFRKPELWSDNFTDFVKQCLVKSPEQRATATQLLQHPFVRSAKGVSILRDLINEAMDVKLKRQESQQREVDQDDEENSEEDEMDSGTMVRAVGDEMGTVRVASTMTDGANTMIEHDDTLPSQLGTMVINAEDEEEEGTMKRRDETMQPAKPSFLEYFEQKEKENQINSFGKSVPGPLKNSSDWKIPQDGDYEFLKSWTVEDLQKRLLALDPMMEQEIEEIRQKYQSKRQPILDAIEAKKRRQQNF

[5] = biological target: T3, full-length HA-MST2 wild-type (human) (UniProt Q13188)
T3 sequence: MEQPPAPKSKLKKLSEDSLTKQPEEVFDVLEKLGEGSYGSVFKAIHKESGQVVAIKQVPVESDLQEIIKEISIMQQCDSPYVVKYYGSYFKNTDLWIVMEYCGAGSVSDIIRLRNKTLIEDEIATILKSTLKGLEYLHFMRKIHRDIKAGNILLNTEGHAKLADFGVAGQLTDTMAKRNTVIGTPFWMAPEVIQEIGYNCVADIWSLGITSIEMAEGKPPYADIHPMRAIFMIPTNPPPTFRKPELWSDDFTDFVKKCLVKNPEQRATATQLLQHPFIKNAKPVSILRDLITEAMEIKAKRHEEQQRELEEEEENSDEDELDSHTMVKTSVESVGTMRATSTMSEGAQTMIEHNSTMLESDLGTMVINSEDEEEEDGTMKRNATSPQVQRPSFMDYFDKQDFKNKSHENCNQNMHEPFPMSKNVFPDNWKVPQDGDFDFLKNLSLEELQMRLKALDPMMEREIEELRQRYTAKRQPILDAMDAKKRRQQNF

binding [1]: binds | binding [2]: binds | binding [3]: binds | binding [4]: binds | binding [5]: binds
B1: myc-tagged full-length human MOB1A wild-type (HEK293) (protein, UniProt Q9H8S9 1-216)
chain: MSFLFSSRSSKTFKPKKNIPEGSHQYELLKHAEATLGSGNLRQAVMLPEGEDLNEWIAVNTVDFFNQINMLYGTITEFCTEASCPVMSAGPRYEYHWADGTNIKKPIKCSAPKYIDYLMTWVQDQLDDETLFPSKIGVPFPKNFMSVAKTILKRLFRVYAHIYHQHFDSVMQLQEEAHLNTSFKHFIFFVQEFNLIDRRELAPLQELIEKLGSKDR

binding [1]: binds | binding [2]: binds | binding [3]: binds | binding [4]: no binding | binding [5]: no binding
B2: myc-tagged full-length human MOB1A(K104E/K105E) (HEK293) (protein, UniProt Q9H8S9 1-216)
chain: B1 chain with K104E, K105E
